# Measured values reported in PubChem BioAssay (NCI).
# Values joined by “and” are separate entries in the source; they are usually repeats but may differ in a detail not shown here. Equal values may be shown once.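 1) Cells in 96-well plates. 2) Compound, 48 h, 5 concentrations. 3) Linear interpolation between surrounding doses. 4) Unreached endpoint = highest concentration. Here, GI50 denotes the concentration required for 50% inhibition of growth. TGI marks complete inhibition of growth.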
# Test system: NCI-H322M lung
# Test: NCI anticancer screen, dose series, 48 h
SMILES,GI50 [µM],TGI
CC(=O)[CH-]C(=O)c1ccccc1.CC(=O)[CH-]C(=O)c1ccccc1.CC(=O)[CH-]C(=O)c1ccccc1.[Tl+3],46.2,> 100 µM
N#Cc1ccccc1NC(=O)/C(=N\NC(=O)c1ccncc1)C(c1cnc2ccc([N+](=O)[O-])cc2n1)[N+](=O)[O-] (stereo not given),,> 100 µM
CCOC(=O)c1[nH]cnc1/N=N/N(C)N,,> 100 µM
CN(C)CCCN=C(N)N,,> 100 µM
C\C=C/C=C/C=C/C(=O)O,,> 100 µM
NNC(=Nc1ccccc1)SCc1ccccc1,,> 100 µM
O=C(c1cc(F)c(Cl)cc1Cl)N1N=C(c2ccccc2)CC1(O)c1ccccc1 (stereo not given),32.9,> 100 µM
COc1cc2c(c(OC)c1OC)-c1ccc(SC)c(=O)cc1[C@@H](NC(=O)c1ccc(OC(C)=O)cc1)CC2,,81.8 µM
CCOC(O)C(F)(F)F (stereo not given),,> 100 µM
c1nc2cscc2c2cscc12,,> 100 µM
C/C=C1\CN2CCC34c5ccccc5N(C)C35OCC4(C(=O)OC)C1CC25 (stereo not given),,> 100 µM
CCCCCNC(=O)[C@@H]1CCCN2C(=O)CC[C@H](NC(=O)[C@H](Cc3ccc(OP(=O)(O)O)cc3)NC(C)=O)C(=O)N12,> 25,> 25 µM
Cc1c(C#N)c2nnn(-c3ccc([N+](=O)[O-])cc3)c(=O)n2c1-c1ccccc1,,85.1 µM
COC1/C=C\C=C(/C)C(=O)Nc2cc3nc4ccc(Br)cc4oc-3c(c2=O)CC(C)CC(OC)C(O)C(C)/C=C(\C)C1OC(N)=O (stereo not given),,25.4 µM
Cc1cccc(C)c1NC(=O)/C(Cl)=C(/Cl)C(=O)O,,68.8 µM
COc1ccc(OC)c(C(=O)/C=C/c2cc(O)c(O)cc2F)c1,,21.3 µM
CCSCC(=O)N1CCc2c([nH]c3ccccc23)C1=O,,> 100 µM
O=C1c2cc([N+](=O)[O-])cnc2S(=O)(=O)N1c1ccc(Br)cc1,,> 100 µM
c1cc2c(cc1C(N1CCNCC1)N1CCNCC1)OCO2,,> 100 µM
N#CC1=C(N)NC(=S)NC12Nc1ccccc1O2 (stereo not given),66.3,> 100 µM
COC1/C(=C\C(=O)OC(C)(C)C)c2ccccc2N1C(C)=O (stereo not given),,> 100 µM
Cc1ccccc1CN1CC2=C(CCN(Cc3ccccc3)C2=O)N2CCN=C12,,> 100 µM
COc1cc2c(cc1OC)C1=Cc3ccc(OC)c(OC)c3C(C#N)N1CC2 (stereo not given),,> 100 µM
N#Cc1ccc(OC(=O)c2ccc(N=C(N)N)cc2)cc1,,> 100 µM
CC(=O)N1CC(C)(C)c2c1cc(C)c(O)c2C,,> 100 µM

SMILES,GI50 [µM],TGI
O=C(CCCC1Cc2ccccc2C1=O)c1ccccc1 (stereo not given),,> 100 µM
COC(=O)NC/C=C\c1nc(CC/C=C\C(=O)OC2CC3CC(=O)O[C@H](/C=C/CC(C)C)C[C@H]4CCC(C)C(C[C@H](OC)CC(C2)O3)O4)co1 (stereo not given in full),8.95,> 100 µM
COC(=O)c1ccc(CCC2=CC(=O)C(Br)=CC2=O)cc1,,> 73 µM
CC(C)=NNc1cnnc2ccc([N+](=O)[O-])cc12,,> 100 µM
O=C(NC1CC1)c1ccc(-c2nc3ccc4[nH]ncc4c3c3c2CCCC3)cc1,3.08,32.3 µM
COc1ccc2c(c1)nc(N)c1c3cc(OC)c(OC)cc3cn21,10.9,23.2 µM
O=c1[nH]nc(-c2ccc([N+](=O)[O-])cc2)n1/N=C/c1ccc([N+](=O)[O-])cc1,,> 100 µM
CC1(CO)OC1COCc1ccccc1 (stereo not given),,> 100 µM
Cc1ccc(S(=O)(=O)N(CC(O)c2ccccc2)c2ccccc2F)cc1 (stereo not given),,43.3 µM
N#CCc1ccc(C(C#N)/C(CCCC(=O)Nc2cccc([N+](=O)[O-])c2)=N\NC(=O)NN)cc1 (stereo not given),,> 100 µM
CCC(C)NC(=S)N/N=C(\C)c1ccccn1 (stereo not given),,> 100 µM
COc1cc(Cl)cc(-c2nn(C(=O)NCCN3CCN(C)CC3)cc2-c2ccncc2)c1,41.7,> 100 µM
COc1cc(NC(=O)c2cc(OC)c3ccn(C)c3c2)cc2c1C[C@]1(C)CC[C@@H](O)C(C)(C)[C@H]1O2,> 100,> 100 µM
CC(=O)OC(CC(C)C)P1(=O)N(CC(C)(C)C)[C@@H]2CCCC[C@H]2N1CC(C)(C)C (stereo not given in full),,25.7 µM
N#CC(c1nc2ccccc2s1)c1nc(Cl)ncc1Br (stereo not given),,> 100 µM
CC(=O)Nc1nc(SCc2ccccc2)c2ncn(C(C)=O)c2n1,> 100,> 100 µM
CC(=O)c1cc2c(s1)C(=O)c1scc(C(C)=O)c1C2=O,,1.68 µM
CSc1nc2c(c(=O)n1C)N=C(c1ccc(Cl)cc1)CC(c1ccccc1)N2 (stereo not given),,> 100 µM
N/N=C(\CC1OC(=O)c2ccccc21)c1ccco1 (stereo not given),,> 100 µM
O=C1/C(=C/c2ccc(O)c([N+](=O)[O-])c2)CCC/C1=C\c1ccc(O)c([N+](=O)[O-])c1,,50 µM and 32 µM
O=C1CCCCCCCCCCC(=O)C2CCOCCOCCOCCC1Cc1cccc(n1)C2,,> 100 µM
CC(=O)C1CC2(c3ccc(C)cc3)C(c3ccc(C)cc3)=C(c3ccc(C)cc3)C1(c1ccc(C)cc1)S2=O (stereo not given),> 100,> 100 µM
COC(=O)C1=COC(C)C2C[n+]3ccc4c([nH]c5ccccc54)c3CC12 (stereo not given),,> 100 µM
N#CC1=C(N)OC2=C(COc3ccc(F)cc32)C1c1ccc(Cl)cc1 (stereo not given),49.5,> 100 µM
Cc1ccccc1C(=O)C#Cc1cn(C2CC(O)C(CO)O2)c(=O)[nH]c1=O (stereo not given),,> 100 µM

SMILES,GI50 [µM],TGI
CCCCCCCCCNCCCCCCCCC,14.8,31 µM
COc1ccc2c(c1)C1Oc3ccccc3CC1(O)CO2 (stereo not given),,> 100 µM
NNC(=O)Cc1cccnc1,,> 100 µM
O=[N+]([O-])c1ccc(Sc2c3ccccc3nc3ccccc23)cc1,,> 100 µM
O=c1[nH]c(=S)c2cc3c(=S)[nH]c(=O)n(CCC(c4ccccc4)(c4ccccc4)c4ccccc4)c3nc2n1CCC(c1ccccc1)(c1ccccc1)c1ccccc1,,> 100 µM
NCCCN(CCCN)CCCNCc1c2ccccc2c(CNCCCN(CCCN)CCCN)c2ccccc12,,31 µM
CCOC(=O)CN=C1Nc2ccccc2C(=O)N2CSCC12 (stereo not given),,> 100 µM
CC(=O)Nc1ccc(N2C(=O)CS(=O)(=O)C2c2cccc(Oc3ccccc3)c2)cc1 (stereo not given),,36 µM
COc1ccc(/C=C\c2cc(OC)c(OC)c(OC)c2)cc1OC(=O)C(N)CCC(=O)O (stereo not given),0.00327,
C/C=C1/CN2[C@@H](C3=C[C@@H]4[C@@H]5N(C3=O)c3ccccc3[C@@]53CCN5C/C(=C/C)[C@@H]4C[C@H]53)C[C@@]34c5ccccc5N5C(=O)CC=C([C@H]1C[C@H]23)[C@H]54,,12.9 µM
OC(C1=C/C(=C\c2ccncc2)c2ccccc21)c1ccncc1 (stereo not given),,43.1 µM
Cc1c(NC(=S)N/N=C\C(=N/NC(=S)Nc2c(C)n(C)n(-c3ccccc3)c2=O)c2ccccc2)c(=O)n(-c2ccccc2)n1C,,> 100 µM
S=c1[nH]c(=S)c2sc(=S)n(-c3ccccc3)c2[nH]1,,> 100 µM
COc1ccc(C2S/C(=C\c3cc(OC)c(OC)c(OC)c3)C(=O)N2NC(=O)Cc2ccccc2)cc1 (stereo not given),,> 100 µM
CC1Cc2c(N)nc(NN)nc2NC1=O (stereo not given),,> 100 µM
CCN(CC)c1ccc(/C=c2\nc(-c3ccccc3)n3c2nc2ccccc23)cc1,,44.3 µM
COC(=O)c1c(O)ccc2c1c1c(n2Cc2ccc(OC)cc2)C(=O)c2ccccc2C1=O,,> 100 µM
CC1(C)NCCC[C@]2(C)[C@H]3C=CC4=C5C[C@](C)(CO)CC[C@]5(C)CC[C@@]4(C)[C@]3(C)CC[C@@H]12,4.78,16.9 µM
CCCCCCCCCCC(C)CCCCCCC(=O)OCC(COP(=O)([O-])OCC[N+](C)(C)C)OC(=O)CCCCCCC(C)CCCCCCCCCC (stereo not given),,> 100 µM
COc1ccccc1C1=C2C(=O)N(C)C(c3ccccc3OC)=C2C(=O)N1C,,> 100 µM
O=c1c2ncn(C3CCCCO3)c2n(-c2ccccc2)c(=S)n1-c1ccccc1 (stereo not given),,> 100 µM
CC(C)(C)C(=O)Nc1ccccc1I(=O)=O,> 100,> 100 µM
OCC(O)C(O)C(O)C1SC(c2ccccc2)=NN1c1ccccc1 (stereo not given),,> 100 µM
O=C1c2n[nH]nc2C(=O)c2n[nH]nc21,,> 100 µM
Clc1ccc(-n2nnc(C3=NCCCN3)c2-c2ccccc2)cc1,,> 100 µM

SMILES,GI50 [µM],TGI
O=C1C(=Cc2ccco2)C(=O)C2CCCCC12 (stereo not given),,> 100 µM
COC(=O)c1c(C)ccc2c(O)c3c(cc12)C(=O)c1c2c(cc(O)c1C3=O)C1(C)OC(C)(O2)C(O)C(N(C)C)C1O (stereo not given),,4.7 µM
CCOC(=O)/C(=C\c1ccc(OCc2ccccc2)c(OC)c1)C(=O)c1ccccc1,,> 100 µM
CC1(C)C2CCC1(C)C(N/C(=C(/C(Cl)=C(Cl)Cl)[N+](=O)[O-])n1nnc3ccccc31)C2 (stereo not given),,> 100 µM
[N-]=[N+]=NC1=NNC2(C(=O)N1)c1ccccc1-c1ccccc12,,> 100 µM
COc1cc(CCNC2=CC(=O)c3cccnc3C2=O)ccc1O,,3.42 µM
C=CCn1c(-c2ccccc2)cs/c1=N\C(P(=O)(O)O)P(=O)(O)O,,> 100 µM
CC(C)=CCC/C(=C\CC/C(=C\CCc1ccoc1)C(=O)O)C(=O)O,,> 100 µM
Cc1ncc([N+](=O)[O-])n1CCNS(=O)(=O)CCCn1ccnc1[N+](=O)[O-],,> 100 µM
CC(C)(C)OC(=O)NC1CCCC1C(O)(C1=CCCC1)C1=CCCC1 (stereo not given),,> 100 µM
O=C(Nc1ccc(Cl)cc1)c1cccc([N+](=O)[O-])c1O,,55.3 µM
CC(=O)OCC1OC(OC2CC3C(C)(C)C(OC(C)=O)CC[C@]3(C)C3CCC45CC4(CC[C@H]5C(C)CC(O)[C@@H](O)C(C)(C)O)[C@]23C)C(O)C(O)C1O (stereo not given in full),5.24,14 µM and 17.4 µM
CN(C)NC1=NS(=O)(=O)c2cc3c(cc2S1)N(N(C)C)C(=O)c1cc2c(cc1N(N(C)C)C3=O)SC(NN(C)C)=NS2(=O)=O,,> 10 µM
O=C(Nc1ccc(-n2cc(-c3ccncc3)c(-c3ccc(Cl)c(O)c3)n2)cc1)Nc1cc(C(F)(F)F)cc(C(F)(F)F)c1,1.71,4 µM
COc1ccc(CNc2nc3cc(N)cc(N)c3nc2-c2ccccc2)cc1OC,21.3,48.6 µM
O=c1[nH]c2nccnc2c2c([N+](=O)[O-])cccc12,,> 100 µM
CC(=O)NC1=C(Nc2ccc(C)cc2)C(=O)c2ccccc2C1=O,,26.4 µM
CC1=NC2(CCCCC2)N(Cl)C(=O)C1SC#N (stereo not given),,32.7 µM
Cc1cc(C)c(O)c(CNCCCCCCNCc2cc(C)cc(C)c2O)c1,1.59,3.83 µM
O=C(O)c1c2c(c(C(=O)O)c3ccccc13)-c1ccccc1-2,,> 100 µM
N=C1c2nc3n(c2C(=O)c2nc4n(c21)CCCC4)CCCC3,2.31,5.31 µM
OCCN1CN(c2nc(N3CN(CCO)C3)nc(N3CN(CCO)C3)n2)C1,,> 100 µM
NC(Cc1ccccc1)=NCC(=O)O,,> 100 µM
CC(C)=CC(C)C(C(O)CCC1(c2ccoc2)OCCO1)S(=O)(=O)c1ccccc1 (stereo not given),,> 100 µM
N#Cc1nc(C(F)(F)F)oc1N,,> 100 µM
